# Measurements published in PubChem BioAssay (Tox21).
# “And” between values parts separate entries of the source, which are not always exact repeats. Identical values can stand only once. Inconclusive means that the source gave no clear call. Such entries were picked first, then a sample of the others. Where the call is inconclusive, the potency comes from a doubtful curve fit. The source made the active and inactive calls. Calls follow the shape of the dose curve; as a rule, active = well fitted curve in the direction sought with a large enough effect in the repeat runs; inconclusive = weak or mixed curves; inactive = no such curve, though single readings can be large; an effect the other way counts as inactive or inconclusive.
# Columns and labels:
# [1] = A CellTox Green Cytotoxicity Assay to monitor cytotoxicity in HEK293 cells - 8 hour (AID 1224884); also: nearly all actives have a fitted effect of over 35% in size
# Method in brief: (§1)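 HEK293 cells, 600/well, were preincubated 5 hours and then exposed to compounds at 37 C for up to 40 hours. A cell-impermeant cyanine dye staining dead-cell DNA was read by fluorescence at 0, 8, 16, 24, 32 and 40 h time points.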
# [2] = qHTS RealTime-Glo MT Cell Viability Assay in HepG2 cells - 16 hour (AID 1224885); also: nearly all actives have a fitted effect of over 50% in size
# Method in brief: (§2)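 Compound treatment began 5 h after plating HepG2 cells (600/well) with NanoLuc luciferase and prosubstrate. Plates stayed at 37 C for 40 h; luminescence was captured at six time points, 0 h through 40 h.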
# [3] = qHTS RealTime-Glo MT Cell Viability Assay in HEK293 cells - 24 hour (AID 1224886); also: nearly all actives have a fitted effect of over 50% in size
# Method in brief: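 Quantitative high-throughput screen of the Tox21 10K library in HEK293: cells and RealTime-Glo reagents plated together, compound added at 5 h, luminescence monitored through 40 h at 37 C.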
# [4] = A CellTox Green Cytotoxicity Assay to monitor cytotoxicity in HEK293 cells - 16 hour (AID 1224888); also: nearly all actives have a fitted effect of over 35% in size
# Method in brief: as §1
# [5] = qHTS RealTime-Glo MT Cell Viability Assay in HEK293 cells - 8 hour (AID 1224887); also: nearly all actives have a fitted effect of over 50% in size
# Method in brief: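 600 cells/well were plated with the nonlytic NanoLuc/prosubstrate reagent, pre-incubated 5 h, then given 23 nL of compound in DMSO. Incubation at 37 C for 40 h, with luminescence from viable-cell-reduced substrate read repeatedly from 0 h.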
# [6] = qHTS RealTime-Glo MT Cell Viability Assay in HepG2 cells - 0 hour (AID 1224889); also: nearly all actives have a fitted effect of over 50% in size
# Method in brief: as §2
# [7] = qHTS assay to identify small molecule antagonists of the estrogen receptor alpha (ER-alpha) signaling pathway using the BG1 cell line in the presence of 0.1 nM 17-beta-estradiol - cell viability counter screen (AID 1259241); also: nearly all actives have a fitted effect of over 40% in size
# Method in brief: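 Cells were plated and left 24 hr, compounds in DMSO were pinned in, 17beta-estradiol was added to 0.1 nM final, and after 22 hr CellTiter-Fluor reagent was added for 30 min before fluorescence was read.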
# [8] = A CellTox Green Cytotoxicity Assay to monitor cytotoxicity in HepG2 cells - 8 hour (AID 1224890); also: nearly all actives have a fitted effect of over 45% in size
# Method in brief: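 HepG2 cells, 600/well, preincubated 5 h with CellTox Green dye, then exposed to Tox21 compounds in DMSO at 37 C for up to 40 h. Dead-cell DNA fluorescence read at the indicated time point.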
# Potency is read from the fitted curve at half-maximal effect; tags tell the direction and shape of the fitted curve.
smiles,measurement,setting,value
C=C(C)C(=O)OCC[N+](C)(C)C,Potency,[1],inactive
same,Potency,[2],inactive
same,Potency,[3],inactive
same,Potency,[4],inactive
O=C1OC2(c3cc(Br)c(O)c(Br)c3Oc3c2cc(Br)c(O)c3Br)c2c(Cl)c(Cl)c(Cl)c(Cl)c21,Potency,[1],active: 3.9 µM and active: 23.6 µM
same,Potency,[2],"inconclusive: 55 µM [cytotoxic, partial curve, poor fit]"
same,Potency,[3],"inconclusive: 55 µM [cytotoxic, partial curve]"
same,Potency,[5],"inconclusive: 49.1 µM [cytotoxic, partial curve]"
same,Potency,[6],"active: 55 µM and inconclusive: 37.4 µM [cytotoxic, partial curve, poor fit]"
same,Potency,[7],active: 8.64 µM and active: 23.4 µM
CC(=O)N[C@@H](CS)C(=O)O,Potency,[1],inactive
same,Potency,[4],"inconclusive: 54.9 µM [activator, single point]"
NC(N)=NN=C(/C=C/c1ccc([N+](=O)[O-])o1)/C=C/c1ccc([N+](=O)[O-])o1,Potency,[1],"inconclusive: 10.7 µM [activator, single point]"
same,Potency,[3],"inconclusive: 0.0849 µM [rising, partial curve]"
same,Potency,[5],active: 6.01 µM
same,Potency,[4],active: 9.52 µM
same,Potency,[7],active: 11.9 µM
O=C1OC2(c3ccc(O)cc3Oc3cc(O)ccc32)c2ccccc21,Potency,[1],active: 692 nM and active: 848 nM
same,Potency,[2],"inconclusive: 9.52 µM [cytotoxic, partial curve, poor fit]"
same,Potency,[8],active: 692 nM and active: 301 nM
same,Potency,[7],"inconclusive: 34.4 µM [rising, partial curve] and inconclusive: 18.8 µM [rising, partial curve]"
Cc1ccc(N/N=c2\c(=O)cc/c(=N\Nc3ccc(S(=O)(=O)O)cc3)c2=O)c(C)c1,Potency,[1],inactive
same,Potency,[6],"inconclusive: 38.9 µM [cytotoxic, partial curve]"
same,Potency,[7],active: 27.3 µM
CSc1ccc(C(=O)c2[nH]c(=O)[nH]c2C)cc1,Potency,[2],inactive
CCCCC/C=C\C=C\C(=O)OCC,Potency,[2],"inconclusive: 51 µM [cytotoxic, partial curve]"
same,Potency,[3],"inconclusive: 57.2 µM [cytotoxic, single point]"
same,Potency,[5],"inconclusive: 51 µM [cytotoxic, partial curve, poor fit]"
CCOC(=O)[C@H](CCc1ccccc1)N[C@H]1CCc2ccccc2N(CC(=O)O)C1=O,Potency,[2],"inconclusive: 23.9 µM [cytotoxic, single point]"
same,Potency,[3],"inconclusive: 26.8 µM [cytotoxic, single point]"
same,Potency,[5],"inconclusive: 26.8 µM [cytotoxic, single point]"
same,Potency,[6],"inconclusive: 12 µM [rising, full curve]"
same,Potency,[8],"inconclusive: 26.8 µM [activator, single point]"
COC(=O)c1cc(Cl)ccc1OC,Potency,[2],inactive
CN1CCN(CCCN2c3ccccc3Sc3ccc(S(=O)(=O)N(C)C)cc32)CC1,Potency,[2],"inconclusive: 26.8 µM [cytotoxic, single point]"
same,Potency,[3],"inconclusive: 26.8 µM [cytotoxic, single point]"
same,Potency,[5],"inconclusive: 26.8 µM [cytotoxic, single point]"
same,Potency,[6],"inconclusive: 19 µM [rising, partial curve, poor fit]"
same,Potency,[8],"inconclusive: 21.3 µM [activator, partial curve]"
CN1CCN(c2cc3c(cc2F)c(=O)c(C(=O)O)cn3-c2ccc(F)cc2)CC1,Potency,[2],inactive
COc1ccccc1NC(=O)c1cc2ccccc2cc1O,Potency,[2],"inconclusive: 30.9 µM [cytotoxic, partial curve]"
same,Potency,[3],active: 34.7 µM
same,Potency,[5],active: 34.7 µM
O=S(=O)(Oc1ccc(Cl)cc1Cl)c1ccccc1,Potency,[2],inactive
same,Potency,[3],"inconclusive: 19.8 µM [cytotoxic, partial curve]"
same,Potency,[5],"inconclusive: 44.4 µM [cytotoxic, single point]"
CC#C[C@]1(O)CC[C@H]2[C@@H]3CCC4=CC(=O)CCC4=C3[C@@H](c3ccc(N(C)C)cc3)C[C@@]21C,Potency,[2],"inconclusive: 38.9 µM [cytotoxic, partial curve]"
same,Potency,[3],"active: 49 µM and inconclusive: 23.9 µM [cytotoxic, partial curve, poor fit]"
same,Potency,[5],"inconclusive: 23.9 µM [cytotoxic, partial curve]"
